# Assay results taken from article PMC12040169 (PLOS Biology, 2025).
# Some of the results follow.
# System: T1, C. trachomatis L2/434/Bu expressing GFP (CTL2-GFP)
# T1 construct: L2/434/Bu GFP intracellular growth in HeLa cells
# Design: species or system HeLa; C. trachomatis total inclusion area by high-content imaging, normalised to DMSO
# Conditions: total inclusion area; 28.5 h, 10 µM; inhibitor
# Procedure, shortened: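 Post-fluorescence-read fixation, DNA staining with Hoechst and high-content imaging; GFP inclusion area and number per well, and nuclei counts, used as proxies for bacterial growth and host viability.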
row,Compound,% of control remaining
1,CC(C)(C)OC(=O)N1CCCC2(CCCN(C(=O)c3ccco3)C2)C1 (stereo not shown) [CBK284463],82.8177
2,O=C(c1cncnc1)N1CCC2(CCN(Cc3ccccc3)CC2)C1 [CBK136782],105.548
3,CC1(C)CC(=O)c2sc(NC(=O)c3cccc(C(F)(F)F)c3)nc2C1 [CBK019941],70.3148
4,CS(=O)(=O)Nc1nccnc1OC1CCN(CCCO)CC1 [CBK084275],79.8069
5,C#CCNC(=O)[C@H]1O[C@H](CCN2CCOCC2)CC[C@@H]1O [CBK288729],92.2298
6,N#Cc1ccc(C(=O)N2C[C@@H]3C[C@H](C2)c2ccc(-c4cccc(C#N)c4)c(=O)n2C3)cc1 [CBK289187],87.7968
7,CCOC(=O)c1nc(-c2ccccc2)sc1C(C)=O [CBK067739],78.1166
8,Cc1ccc(C(=O)CC(C(=O)O)P(=O)(c2ccccc2)c2ccccc2)cc1 (stereo not shown) [CBK265022],93.8093
9,O=C(NCCOc1ccccc1)NC(=O)C1CCNCC1 [CBK088187T],71.5657
10,Oc1ccc(-c2cccc(N3CCN(c4ccccn4)CC3)n2)cc1 [CBK037028],95.5308
11,CCNc1cncc(-c2cncc(OC)c2)n1 [CBK065366],74.5871
12,OCCCn1cc(CN2CCC(CO)C2)c2ccccc21 (stereo not shown) [CBK282114],105.637
13,O=C(Nc1cccc(O)c1)c1ccc2c(c1)C(=O)N(Cc1ccco1)C2=O [CBK268640],89.1774
14,c1ccc(N2CCN(c3cncc(-c4ccc5ccccc5c4)n3)CC2)nc1 [CBK066104],85.2045
15,CN(C)CCNCCOc1cccc([N+](=O)[O-])c1 [CBK267803C],104.486
16,O=C(OCc1ccc([N+](=O)[O-])cc1)C1CCN(S(=O)(=O)c2cccc3cccnc23)CC1 [CBK264430],129.146
17,O=C(Nc1cccc(N2CCNCC2)c1)c1ccnc2ccccc12 [CBK029416T],93.7397
18,Cn1c(SCCOc2ccccc2Cl)nnc1-c1ccncc1 [CBK265969],127.632
19,Cc1ccc(-n2cccn2)cc1S(=O)(=O)N1CCNCC1C (stereo not shown) [CBK307344],118.373
20,COc1ccccc1C1(NC(=O)Cn2nc(C)cc2C)CCCC1 [CBK283573],76.252
21,COc1ccc2cc(C(=O)N3CCC(c4ccncc4)CC3)[nH]c2c1 [CBK283799],47.459
22,CCc1nn(CC(=O)N2CCCC2)c(=O)c2cc3ccsc3n12 [CBK284120],79.3626
23,O=C(Nc1nnc(C2CCCCC2)s1)c1ccccc1I [CBK057918],51.6491
24,NS(=O)(=O)c1ccc(CCNCC2CCCCC2)cc1 [CBK288467],63.4313
25,CC(C)CNC(=O)N1CCN(Cc2ccccc2)CC1 [CBK155644],103.925
26,CCOc1cc(/C=C2\SC(=N)NC2=O)ccc1OC(=O)c1cccs1 [CBK265510],93.186

row,Compound,% of control remaining
1,Cc1cc(C)n(C(C)Cn2cncc2-c2cn(C)nc2C)n1 (stereo not shown) [CBK281792],129.914
2,O=C(COc1cccc(Cl)c1)NNC(=S)Nc1ccccc1 [CBK267180],116.275
3,COc1ccc(-c2cc(C(=O)N[C@@H](C)c3ccccc3)cnc2-c2cccc(C)c2)cc1 [CBK036635],94.6021
4,Cc1ccc(CNC(=O)c2cnoc2-c2ccc(Br)cc2)cc1F [CBK154896],87.5596
5,Cc1cccc(-c2csc3c(=O)[nH]c(N4CCC5(CC4)OCCO5)nc23)c1 [CBK291142],80.5034
6,Cc1ccc2[nH]c(CN3CCC(O)C3)cc(=O)c2c1 (stereo not shown) [CBK307690],59.7429
7,O=C(NCC1CCCN1)c1cc2cc(Cl)ccc2[nH]1 (stereo not shown) [CBK115917C],86.7266
8,CCNc1cncc(-c2cc(OC)c(OC)c(OC)c2)n1 [CBK065336],76.0902
9,Cc1cc(C)nc(N(C#N)CC(=O)c2ccc(Br)cc2)n1 [CBK266562],131.403
10,COc1cc(/C=C2\C(=O)NN(c3ccccc3)C2=O)ccc1OCCOc1cc(C)ccc1C [CBK263947],95.1195
11,CCOC(=O)/C(=N/Nc1cccc(C)c1)c1csc(N)n1 [CBK261059],67.4905
12,Cc1cccc(CN(CCN)C(=O)NC2C[C@H]2c2ccccc2)n1 (stereo partly shown) [CBK046220C],93.7956
13,CCOc1ccc(NC(=O)CCc2ncc(C(C)(C)C)o2)c(C)c1 [CBK306021],46.1809
14,CCCN1CC(NS(=O)(=O)c2cc(OC)c(C)cc2OC)CC1=O (stereo not shown) [CBK307036],57.0746
15,Cc1ccc(C)c(CC(=O)N(C)C2CCN(C3CCOCC3)CC2)c1 [CBK304964],51.0156
16,O=C1CC(c2noc(-c3ccncc3)n2)CN1c1ccccc1 (stereo not shown) [CBK288043],107.053
17,O=C(CN(c1ccccc1F)S(=O)(=O)c1ccccc1)Nc1ccccc1C(=O)O [CBK263999],84.6349
18,C/C(=N\NC(=O)C1CC1)c1ccc(C)cc1 [CBK016047],87.6402
19,O=[N+]([O-])c1cc(-c2nnc(-c3ccccc3)o2)ccc1-n1c(-c2ccccc2)nnc1-c1ccccc1 [CBK267341],110.854
20,COc1ccc(/C(C)=N\NC(=O)c2cccc(Br)c2)cc1 [CBK261612],87.9906
21,O=C(Cc1ccc(Br)cc1)N1CCC(Cc2ccccc2)CC1 [CBK058493],58.3676
22,CC(NC(=O)c1cnc(-c2cccc(C(F)(F)F)c2)c(-c2ccncc2)c1)c1ccc(F)cc1 (stereo not shown) [CBK037556],162.747
23,N#Cc1ccccc1NC(=O)C(CC(=O)O)NCc1ccccc1 (stereo not shown) [CBK286907],86.6931
24,CCN(CCO)C(=O)NC1CCCc2c1cnn2Cc1ccccc1 (stereo not shown) [CBK305277],80.5623
25,CC1CN(C(=O)c2ccccc2-c2ccccc2C(=O)O)CC(C)O1 (stereo not shown) [CBK286577],73.3505
26,Cc1nc2n(c(=O)c1CCSc1ccccc1C(=O)O)CCCC2 [CBK286818],106.462
